The values below come from the supplement of paper PMC10338343.

± gives the standard deviation. Over roughly 5,500 sequences, “pre-steady-state target cleavage rate” has its median near 0.1; the highest 2% begin near 0.64. Only a part is listed here, and it is no random draw.

This assay has as its system MIWI (PIWIL1) piRISC loaded with piRNA #2 (30 nt). The assay can be described thus: pre-steady-state target cleavage rate (min^-1); MIWI and MILI are mouse PIWI proteins and EfPiwi is from a freshwater sponge; tags in brackets are library labels; higher = faster piRNA-guided slicing of the target. The conditions noted are these: guide: piRNA #2 5'p-UUAGGUAACCCAGUAGAUCCAGAGGAAUUC; auxiliary factor: 500 nM mouse GTSF1. The gist of the method:
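Sequencing of uncleaved targets, normalised to depth and to weakly complementary targets, was the readout of this Cleave-'n-Seq assay. A transcribed, DNA-blocked target RNA library (0.1 nM) was mixed with 1 nM active affinity-purified piRISC carrying one synthetic guide, with or without 500 nM GTSF1 partner protein, in HEPES–potassium acetate buffer at 33 °C for 0–8 or 0–960 min. Three trials were pooled, k3 was capped at 0.0001 min^-1, and a burst-and-steady-state fit gave the pre-steady-state cleavage rate.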
As for CUUAAGGUCUGGAUCUACUGGGUAAGCUAA, the “pre-steady-state target cleavage rate” value was found to be 0.00737 ± 0.0024. With CAAUUCCUCUGGAACUACUGGGUUACCUAA, the “pre-steady-state target cleavage rate” value was 0.502 ± 0.042. Under CUUAAGGUCAGGAUCUUCUGGGUUACCUAA stands 0.00769 ± 0.0062; under CUUUUCCUCUGGAUCUAGUGCGUUACCUAA, 0.0621 ± 0.0074. For the sequence CUAUUCGAGUGGAUCUACUGGGUUACCUAA, the “pre-steady-state target cleavage rate” value is 0.336 ± 0.035.

As to CUAUUCCUCAGGAUCUACUGGGUUACCAAA, the “pre-steady-state target cleavage rate” value is 0.409 ± 0.077.

On to CUUAAGGAGAGAGAUCUACUGGGUUACCUAA, for which the “pre-steady-state target cleavage rate” value was determined as 0.00483 ± 0.0032. Under “CUUAUCCUCUGGAUCUACUGGGUUACCUAC [g2:g26:cont:t1C]” stands 0.326 ± 0.045. Under CUUAAGGACUGGAUUUACUGGGUUACCUAA stands 0.109 ± 0.049; under CAAUUCCUCUGGAUCUACUGGUUACCUAA, 0.19 ± 0.046. For the sequence CUUAUCGUCUGGAUCUACUGGGUUUCCUAA, the “pre-steady-state target cleavage rate” value worked out at 0.309 ± 0.054.

Consider CUUAUCCUCUGGAUUCUACUGGGUUACCUAA, for which the “pre-steady-state target cleavage rate” value is 0.247 ± 0.039.

With CUUAAGGUCUGGAUUACUGGGUUACCUAA, the “pre-steady-state target cleavage rate” value was found to be 0.0531 ± 0.023.

As to CUUAAGCUCUGGUUCUAGUGGGUUACCUAA, the “pre-steady-state target cleavage rate” value stood at 0.117 ± 0.013. Under CUUAAGCUGUGGAUGUACUGGGUUACCUAA stands 0.135 ± 0.05. Under CUUAAGCUCUGGACCUACUGGGUUACCUAA stands 0.0252 ± 0.012; under CUUAAGGAGACCUAGAUGUGCGUUACCUAA, 0.00369 ± 0.0017.

As to CUUAACCUCUGCAUCUACUGGGUAACCUAA, the “pre-steady-state target cleavage rate” value came to 0.116 ± 0.014. Under GAAUUCGCUCUGGAUCUACUGGGUUACCUAA stands 0.134 ± 0.031; under CUUAUCCUCUGGAUCUACUGGGAAACCUAA, 0.169 ± 0.033. Turning to GAAUACCUCUGCAUCUACUGGGUUACCUAA, the “pre-steady-state target cleavage rate” value turned out to be 0.345 ± 0.051. On to CUUAUCCUCUGGAGUCUACUGGGUUACCUAA, for which the “pre-steady-state target cleavage rate” value was 0.296 ± 0.034. Regarding CUUAACCUCUGGAACUACUGGGUUUCCUAA, the “pre-steady-state target cleavage rate” value came out at 0.0963 ± 0.029.

Regarding CUUAACCUCUGGAUCUACUGGGUAACCAAA, the “pre-steady-state target cleavage rate” value was found to be 0.0535 ± 0.013. Under CUUAAGCUCUGCAUCUACUGGGUAACCUAA stands 0.0717 ± 0.019; under CAAUUCCUCUGGAUCUACUGGGUUAACCUAA, 0.592 ± 0.072. As for GAAUUCCUCUGGAUCUACAGGGUAACCUAA, the “pre-steady-state target cleavage rate” value came out at 0.101 ± 0.018. On to CUAUUCCUCUGGAUCUACUCGGAUACCUAA, for which the “pre-steady-state target cleavage rate” value is 0.0176 ± 0.01. In the case of CUUAAGCUCUGGAUCUACUGGGAUACCAAA, the “pre-steady-state target cleavage rate” value turned out to be 0.0761 ± 0.025.

On to GAAUUCCUCUGGAUCUAGUGCGUUACCUAA, for which the “pre-steady-state target cleavage rate” value is 0.0718 ± 0.0089.

Consider CUUAUCGACUGGAUCUACUGGGUUACCUAA, for which the “pre-steady-state target cleavage rate” value was 0.338 ± 0.057.

For the sequence CUUAAGCUCUGGAACUACUGGGAUACCUAA, the “pre-steady-state target cleavage rate” value turned out to be 0.0713 ± 0.0087. Under CUUAAGGUCUGGAUGUACUGGGUUACCUUA stands 0.0769 ± 0.019; under CUUAAGGUCUGGCAUCUACUGGGUUACCUAA, 0.145 ± 0.018. Under CUUAACCUCUCCUUCUACUGGGUUACCUAA stands 0.386 ± 0.039; under GAAUACCUCUGGAUGUACUGGGUUACCUAA, 0.251 ± 0.044. Under GAAUUCCUCUGGAUCUAUCUGGGUUACCUAA stands 0.00429 ± 0.0039; under GAAUUCCUCUGGAUCUACUCGGUUAGCUAA, 0.0782 ± 0.019. As to CUUAAGCUCUGGAUCUACUGGGAUACCUAA, the “pre-steady-state target cleavage rate” value is 0.104 ± 0.019. Take CUUAAGCUCCGGAUCUACUGGGUUACCUAA: the “pre-steady-state target cleavage rate” value came to 0.165 ± 0.021. Under CUUAAGCUCUGGAUCUACUGGGUUACCUA stands 0.103 ± 0.02; under CUUAAGCUCUGGAUCUACUGGGUUCACCUAA, 0.0791 ± 0.013. Under GAAUUCCUCUGGAUCUCUGGGUUACCUAA stands 0.00502 ± 0.004; under CUUAAGGUCUGGAUCUACUGGGUGUACCUAA, 0.171 ± 0.035. For the sequence CUUAACCUCUGGAUCUACUGGGUUUGGUAA, the “pre-steady-state target cleavage rate” value is 0.048 ± 0.012. Under CUUAAGCUGUGGAUCUACUCGGUUACCUAA stands 0.0342 ± 0.016. Under CUUAACCUCUGGAUCAACAGGGUUACCUAA stands 0.187 ± 0.024; under CUUAACCUCUGGAUCUACUGGGCUUACCUAA, 0.0324 ± 0.0087. For GAAUUCCUCUGGAUCACUGGGUUACCUAA, the “pre-steady-state target cleavage rate” value worked out at 0.0451 ± 0.015. On to GAAUUCCUGCUGGAUCUACUGGGUUACCUAA, for which the “pre-steady-state target cleavage rate” value came to 0.323 ± 0.038. Under CUAUACCUCUGGAUCUACUGGGUUACCUUA stands 0.521 ± 0.1; under CUUAAGGACUGGAUCUACUGGGAUACCUAA, 0.0631 ± 0.039. For the sequence GAAUUCCUCUGGAUCUACUGCGUUUCCUAA, the “pre-steady-state target cleavage rate” value turned out to be 0.133 ± 0.041. In the case of CUUAUGCUCUGGAUCUACUGGGUUACCUUA, the “pre-steady-state target cleavage rate” value was found to be 0.0971 ± 0.014. Under CAAUUCCUCUGGAUCUACUGGGUUGCCUAA stands 0.442 ± 0.053; under CAAUUCCUCUGGAUCUACUGGGUUACUUAA, 0.563 ± 0.059. Under CUUAUCGUCUGGUUCUACUGGGUUACCUAA stands 0.4 ± 0.055; under CUUAACCUCUGGAUCUAGUGGCUUACCUAA, 0.00889 ± 0.0039; under CUUAAGGACUGGAUCUACUGAGUUACCUAA, 0.2 ± 0.072. With CUUAAGCUCUGGAUCUACUGGGUUACGCUAA, the “pre-steady-state target cleavage rate” value came to 0.272 ± 0.028.

Consider GAAAUCCUCUGGAUCUACAGGGUUACCUAA, for which the “pre-steady-state target cleavage rate” value was 0.113 ± 0.019. Turning to CUUAAGCUCUGGAUCUACUGGGUUAGCCUAA, the “pre-steady-state target cleavage rate” value was determined as 0.0984 ± 0.011. Regarding CUUAAGGACUCGAUCUACUGGGUUAGCUAA, the “pre-steady-state target cleavage rate” value stood at 0.00705 ± 0.0047. Under CUUUUCUCUCUGGAUCUACUGGGUUACCUAA stands 0.205 ± 0.033; under CUUAACCUCUGGAUCGACUGGGUUACCUAA, 0.142 ± 0.014; under CUUAAGCUCUGGUAUCUACUGGGUUACCUAA, 0.212 ± 0.02. Under CUUAACCUCUGCUUCUACUGGGUUACCUAA stands 0.294 ± 0.028; under CUUUUCCUCUGGAUCUACUGGGUUACCAUAA, 0.422 ± 0.047; under CUUAACCUCUGGAUCAACUGGGUUUCCUAA, 0.0606 ± 0.015. As to CUUUUCCUCUGGAUCUACUAGGUUACCUAA, the “pre-steady-state target cleavage rate” value is 0.224 ± 0.037. Take CUUAACGUCUGGAUCUUCUGGGUUACCUAA: the “pre-steady-state target cleavage rate” value is 0.169 ± 0.018. CUUAACCUCAUGGAUCUACUGGGUUACCUAA: the “pre-steady-state target cleavage rate” value was 0.371 ± 0.039. Under CUAUUCCUCUGCAUCUACUCGGUUACCUAA stands 0.0856 ± 0.012.

As to CUUAAGGAGUGGUUGUACUGGGUUACCUAA, the “pre-steady-state target cleavage rate” value came to 0.00613 ± 0.0041.

With CUAUUCCUCUCGAUCUACUGGGUUUCCUAA, the “pre-steady-state target cleavage rate” value came out at 0.546 ± 0.059. Under CUUAACCUCUGGAACUACUGGGUUACCAAA stands 0.133 ± 0.015; under CUUAUCCUCUGGUUCUAGUGGGUUACCUAA, 0.193 ± 0.023. As for CUAUUCCUCUGGAUCUACAGGGUUAGCUAA, the “pre-steady-state target cleavage rate” value turned out to be 0.157 ± 0.035. Under CUUAAGCUCUGGAUCUAGUGGGUUACCAAA stands 0.038 ± 0.0085; under GAAUUCCACUGGAUCUAGUGGGUUACCUAA, 0.397 ± 0.033; under CUUAAGGAGACCAUCUACUGGGUUACGUAA, 0.0031 ± 0.0021. CUUAAGCUCUGGAACUAGUGGGUUACCUAA: the “pre-steady-state target cleavage rate” value was found to be 0.0695 ± 0.0092. Under CUUAAGCUCUGGAUCUACUCGGAUACCUAA stands 0.0207 ± 0.01; under CUUAAGCUCUGGAUCUACUGCCUUACCUAA, 0.034 ± 0.012; under CUUAACCUCUGGAUCUACUGGGUAUCCUAA, 0.0653 ± 0.016. Under CAAUUCCUCUGGAUCAACUGGGAUACCUAA stands 0.248 ± 0.036; under CAAUUCGUCUGGAACUACUGGGUUACCUAA, 0.517 ± 0.05. As for CUUAACCUCUGGAUCUACUGGGUUCACCUAA, the “pre-steady-state target cleavage rate” value stood at 0.128 ± 0.02. Under CUUAUCCUCUGCAUCUACUGGCUUACCUAA stands 0.0948 ± 0.0091; under CUUAAGCUCUGGUUCUACUGGGAUACCUAA, 0.0483 ± 0.0094. Under CUUAUCCUCUCGAUCUACUGGGUAACCUAA stands 0.297 ± 0.029; under CUUAACCUCUGCAUCUACUGGGUUAGCUAA, 0.102 ± 0.018.
